The full ranking holds about 33,000 sequences; the median of “E-score (-0.5 to 0.5)” is about -0.041, and the highest 2% start at about 0.37. The list shows a part of the results.
Target: T1, Ecm22 (UniProt Q05958)
T1 sequence: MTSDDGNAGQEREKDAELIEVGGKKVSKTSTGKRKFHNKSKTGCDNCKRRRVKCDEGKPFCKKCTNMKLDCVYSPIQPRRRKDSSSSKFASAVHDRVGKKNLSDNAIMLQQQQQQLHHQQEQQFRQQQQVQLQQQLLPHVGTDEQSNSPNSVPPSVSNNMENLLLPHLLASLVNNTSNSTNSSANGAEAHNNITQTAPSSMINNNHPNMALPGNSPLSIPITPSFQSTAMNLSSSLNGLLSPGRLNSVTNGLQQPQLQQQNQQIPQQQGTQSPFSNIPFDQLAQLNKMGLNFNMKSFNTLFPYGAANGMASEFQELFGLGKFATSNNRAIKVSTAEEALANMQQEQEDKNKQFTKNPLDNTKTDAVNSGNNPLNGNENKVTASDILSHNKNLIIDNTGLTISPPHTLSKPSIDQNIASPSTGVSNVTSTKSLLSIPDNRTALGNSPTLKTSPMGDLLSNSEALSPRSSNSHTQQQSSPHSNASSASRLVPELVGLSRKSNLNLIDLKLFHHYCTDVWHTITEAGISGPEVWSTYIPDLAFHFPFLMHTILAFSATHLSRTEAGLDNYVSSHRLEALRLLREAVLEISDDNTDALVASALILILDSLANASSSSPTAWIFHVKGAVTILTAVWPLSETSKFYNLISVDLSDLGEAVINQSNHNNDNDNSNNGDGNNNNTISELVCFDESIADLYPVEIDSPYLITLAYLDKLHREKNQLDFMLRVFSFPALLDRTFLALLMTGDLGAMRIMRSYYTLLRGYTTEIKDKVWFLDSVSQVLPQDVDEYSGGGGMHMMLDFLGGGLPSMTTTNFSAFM
Test: PBM E-score (8-mer binding enrichment) (E-score (-0.5 to 0.5)); higher = stronger / more preferred TF binding; most listed sequences are background and not binding sites
Conditions: protein concentration: 200 nM; construct: GST-full length
Procedure, shortened: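 Detection of bound protein used fluorescent anti-GST, with scans normalised by masliner. The proteins were GST-tagged yeast transcription factors applied at about 100-200 nM to universal all-10-mer Agilent arrays made double-stranded by primer extension. Each ungapped eight-base word, pooled with its reverse complement, was scored with an E-score from the Universal PBM Analysis Suite.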

Sequence | PBM E-score
ATGGAGTG | -0.27
ACTATCAT | 0.134
ATGGTGGC | -0.363
AAAAGTGA | -0.25
GGAACGGA | 0.435
GAGTCATA | -0.0541
ATATTTAC | 0.234
CGCCTAGC | -0.28
GCACGCAA | 0.113
AGTAACAA | -0.0844
CGCCTACA | -0.131
CTACAGAG | -0.0143
GGAATATA | 0.0365
TATGTAGA | -0.119
AGATGAGC | -0.0782
CATGCAAG | -0.292
CCGAGCTA | 0.101
CACGAGGA | 0.196
GAGATCTC | 0.244
ATCCTGTA | -0.00044
AGCAAATG | -0.159
TAGAGACA | -0.127
GGCATTAC | -0.132
CGCGTCAA | 0.0655
ATCGTGAG | -0.137

Sequence | PBM E-score
ATACTAAA | 0.228
AGCCAAAC | -0.0307
CGAATCTC | 0.172
CTGCGTCC | -0.182
CAATCGGG | -0.0665
GGCTTTAA | -0.0872
ATGCGAGA | 0.302
ACGACGCC | 0.33
CCGCTGCC | -0.146
CAAATACC | -0.146
CACCGTGG | -0.115
CAGTCCGC | -0.119
AGCTAAAG | -0.064
GGCTGCGA | 0.0236
CATCAAAG | -0.299
AAACTATA | 0.0413
AAACCTTA | 0.0879
ACTACGTG | -0.118
GGAGTCGA | -0.0423
CGTACGAC | 0.444
CAGATCAC | -0.256
CGTAATTA | 0.179
CGATGGAG | 0.141
ACATATAC | 0.136
CGGCAGGC | -0.0556

Sequence | PBM E-score
AGGCAAGG | -0.188
ACTGGGAT | -0.116
ATGGACGG | -0.0733
CGGCGGGC | 0.00972
ACGCTGGG | -0.237
GGTAGTTA | -0.169
GTGATTCA | -0.129
AAAGAACC | -0.035
GCAGCGTA | -0.0188
AAAGGCCT | -0.114
AACTTTCA | 0.0277
GCTCTCCA | -0.28
CTGACCGA | 0.196
CTAGTTCA | -0.0832
AGATCGGC | -0.106
AGGGATAG | -0.109
TACTGATA | 0.116
AGTCACAC | -0.245
CTTTTTGC | -0.0572
AGATGTAG | -0.191
ATTTAGAC | -0.0454
GCGCGTAA | 0.142
TAGATAGA | -0.173
TCATTCGA | -0.00089
ATTGCAAC | 0.029

Sequence | PBM E-score
CCAACGCC | -0.19
AAACCGGG | -0.0388
CAAGCTGG | -0.19
AGGTGCGA | 0.233
GCTGCTGA | 0.0691
AGAAAGAA | -0.0521
AACTGCGA | 0.0201
AACCCCAG | -0.295
CTGGAAGA | -0.138
ATTTTTCC | 0.144
AACCCCCG | -0.185
CTAACGTC | -0.1
CGCTGGAG | 0.05
CACGAACG | 0.312
ACCGCCTG | -0.112
ATCTACCA | -0.108
GAGGACTA | -0.113
GAGTGACA | -0.0577
ATGCCTAA | -0.271
GCGGGAAC | 0.157
CCCACCAC | -0.129
GATGGTGA | -0.0723
AACCTCCA | -0.265
GACTGCGA | -0.257
AGGGTCGC | 0.0776

Sequence | PBM E-score
GAACGAGC | 0.483
AATAAGCA | 0.0445
ACGCCAAG | -0.113
CCGGGCTC | 0.00213
ACTGGGGA | -0.183
ATACGCAA | 0.239
AACTGGAC | -0.085
AGTCTTGA | -0.263
AAGAAGCG | -0.031
CGATTCAC | 0.12
AATTATCA | 0.073
AGGACACG | -0.0906
ACTAACCG | 0.238
ATAAGAAA | -0.0976
ACCCGAGT | 0.225
TACCTACA | -0.0657
AACTTTCC | -0.176
TTATCGAA | 0.0613
CTAACTCC | -0.0929
ATCGTAGA | 0.272
AACGAGAA | 0.424
AACGAAAA | 0.364
CTTACGTA | 0.163
TAGTCGGA | 0.0965
ATGCTTTC | -0.0199

Sequence | PBM E-score
AAAAGAAG | -0.15
GGTATTTA | -0.00022
GAACTTGA | -0.0118
ACGGACCG | 0.203
AGGTGGTG | -0.135
CTATAGAA | -0.0568
GATGATCC | 0.111
CCGGAGAG | -0.097
CTAACCGC | 0.0805
ACTCGGGC | -0.0393
ATTTCCCC | -0.11
GTTGTCGA | -0.059
GATGCACA | 0.0713
ATGATGTA | 0.0103
AGCACATA | -0.117
ATGGATGG | -0.0745
CGGCTCGA | 0.101
ATTACCGG | -0.0764
TCTAGTAA | -0.124
CATCCTGG | -0.134
ACAGCCGT | 0.11
CGTAGGAA | 0.196
ATTAGCAG | -0.174
CCATTGGC | -0.269
AGTTTCGA | -0.16

Sequence | PBM E-score
TCATTAGA | 0.0734
AGACCTGG | -0.309
TCGCGCCA | -0.128
ATTACTAC | 0.129
ATGCTAGA | -0.128
ACCGAACC | 0.0703
GGCGTATA | 0.359
AAGTTATA | 0.0296
ACGGAGAC | 0.0742
GCTAGCGA | -0.039
ACAAAGCG | 0.0907
GATTAACA | -0.00865
CGGAGTGC | 0.0703
AGCGTTTG | 0.031
GGGCGGGA | 0.0564
AGCAGCAA | -0.194
ACAGGGGT | -0.174
ACGACCGT | 0.341
GCAGGCAC | -0.202
AGGATCGC | -0.0686
CGAGTACA | 0.246
ACCAACAC | 0.107

— the supplement of paper PMC3334620
